Laboratory results: paper PMC9911399, “Two distinct binding modes provide the RNA-binding protein RbFox with extraordinary sequence specificity”
Residue numbers refer to the chain shown, from its start. The list shows a part of the results.

T1: RBFOX1 RRM RbFoxmut (Fox-RRM*) (Homo sapiens, UniProt Q9NWB1 109-208, R118D;E147R;N151S;E152T)
T1 sequence: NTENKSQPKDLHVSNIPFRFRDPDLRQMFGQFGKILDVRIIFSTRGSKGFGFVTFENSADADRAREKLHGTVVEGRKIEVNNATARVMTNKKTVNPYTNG

B1: ACUUGAC (DNA:RNA)
RNA: GGGAGACCGGAAUUCAGAUUGUCCACUUGACUUAAAUCCCGUCGUAGCCACCA
DNA 1: CAATCTGAATTCCGGTCTCCC
DNA 2: TGGTGGCTACGACGGGATT
B2: ACACUCC (DNA:RNA)
RNA: B1 RNA with U27A, U28C, G29U, A30C
DNA 1: CAATCTGAATTCCGGTCTCCC
DNA 2: TGGTGGCTACGACGGGATT
B3: UUUCGGG (DNA:RNA)
RNA: B1 RNA with A25U, C26U, U28C, A30G, C31G
DNA 1: CAATCTGAATTCCGGTCTCCC
DNA 2: TGGTGGCTACGACGGGATT
B4: CGCACGU (DNA:RNA)
RNA: GGGAGACCGGAAUUCAGAUUGUCCCGCACGUUUAAAUCCCGUCGUAGCCACCA
DNA 1: CAATCTGAATTCCGGTCTCCC
DNA 2: TGGTGGCTACGACGGGATT
B5: GAAACAC (DNA:RNA)
RNA: B1 RNA with A25G, C26A, U27A, U28A, G29C
DNA 1: CAATCTGAATTCCGGTCTCCC
DNA 2: TGGTGGCTACGACGGGATT
B6: CGGUACA (DNA:RNA)
RNA: B4 RNA with C27G, A28U, C29A, G30C, U31A
DNA 1: CAATCTGAATTCCGGTCTCCC
DNA 2: TGGTGGCTACGACGGGATT
B7: GACUGCU (DNA:RNA)
RNA: B1 RNA with A25G, C26A, U27C, A30C, C31U
DNA 1: CAATCTGAATTCCGGTCTCCC
DNA 2: TGGTGGCTACGACGGGATT
B8: CCUCUAG (DNA:RNA)
RNA: B1 RNA with A25C, U28C, G29U, C31G
DNA 1: CAATCTGAATTCCGGTCTCCC
DNA 2: TGGTGGCTACGACGGGATT
B9: UCAUAAG (DNA:RNA)
RNA: B1 RNA with A25U, U27A, G29A, C31G
DNA 1: CAATCTGAATTCCGGTCTCCC
DNA 2: TGGTGGCTACGACGGGATT

Target: T1, RBFOX1 RRM RbFoxmut (Fox-RRM*)
Test: EMSA; HiTS-Eq, 1 nM pool, 10 min; buffer printed only for the single-RNA assays: 10 mM Tris pH 7.5, 150 mM NaCl, 3.4 mM EDTA, 0.001% NP-40, 30 C
Conditions: tags: His6 N-terminal (pET28a); label: 5' 32P
How it was run: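 Relative association constants, normalised to the cognate motif, were derived by comparing read counts of each RNA species with those of the control reaction. The RNA sequenced was the free fraction, separated by 8% native PAGE after a 10 min equilibration in 50 µL of 1 nM 5′-radiolabelled RNA (7 randomized nucleotides) with increasing concentrations of purified wild-type or mutant RbFox RRM.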

Binder	binding signal
B1	0.151 KA relative to UGCAUGU
B2	0.0902 KA relative to UGCAUGU
B3	0.0763 KA relative to UGCAUGU
B4	0.241 KA relative to UGCAUGU
B5	0.0537 KA relative to UGCAUGU
B6	0.0855 KA relative to UGCAUGU
B7	0.124 KA relative to UGCAUGU
B8	0.112 KA relative to UGCAUGU
B9	0.119 KA relative to UGCAUGU
